The values below come from PMC5700166.

This is a selection; strong and weak results do not stand in their true shares. The list includes weakly bound sequences.

Holding throughout (assay): protein-binding microarray (PBM)
Holding throughout (settings): PBM: ~300 nM protein, 6 mM HEPES pH 7.8, 80 mM KCl, 0.5 mM EDTA, 0.5 mM EGTA, 6% glycerol, 35 ng/ul poly-dIdC, 1% milk, 1 h, room temperature; Ap Aiptasia and Nv Nematostella (sea anemones) / Co Capsaspora / Aq Amphimedon (sponge) / Dm Drosophila / Hu human; RHD is the Rel homology domain; high values mean tight binding; most listed sequences are background and not binding sites; double strand, one strand shown

Assay [1] addresses T1, GST-Ap-NF-kB RHD (UniProt A0A913YAJ5).
T1 sequence: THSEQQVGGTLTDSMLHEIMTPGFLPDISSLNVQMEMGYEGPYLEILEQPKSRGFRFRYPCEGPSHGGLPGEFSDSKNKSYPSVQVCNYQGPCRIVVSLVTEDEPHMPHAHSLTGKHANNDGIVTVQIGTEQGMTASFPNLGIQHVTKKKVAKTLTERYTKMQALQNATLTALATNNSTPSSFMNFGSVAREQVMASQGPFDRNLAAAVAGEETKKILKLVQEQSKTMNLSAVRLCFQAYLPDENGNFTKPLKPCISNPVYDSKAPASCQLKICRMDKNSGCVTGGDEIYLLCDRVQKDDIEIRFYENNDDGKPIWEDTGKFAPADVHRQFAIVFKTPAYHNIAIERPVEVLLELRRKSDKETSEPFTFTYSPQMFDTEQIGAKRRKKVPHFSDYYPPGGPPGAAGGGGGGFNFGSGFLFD

For assay [2], the target named is T2, GST-Nv-NF-kB (Cys allele) (UniProt E5G601).
T2 sequence: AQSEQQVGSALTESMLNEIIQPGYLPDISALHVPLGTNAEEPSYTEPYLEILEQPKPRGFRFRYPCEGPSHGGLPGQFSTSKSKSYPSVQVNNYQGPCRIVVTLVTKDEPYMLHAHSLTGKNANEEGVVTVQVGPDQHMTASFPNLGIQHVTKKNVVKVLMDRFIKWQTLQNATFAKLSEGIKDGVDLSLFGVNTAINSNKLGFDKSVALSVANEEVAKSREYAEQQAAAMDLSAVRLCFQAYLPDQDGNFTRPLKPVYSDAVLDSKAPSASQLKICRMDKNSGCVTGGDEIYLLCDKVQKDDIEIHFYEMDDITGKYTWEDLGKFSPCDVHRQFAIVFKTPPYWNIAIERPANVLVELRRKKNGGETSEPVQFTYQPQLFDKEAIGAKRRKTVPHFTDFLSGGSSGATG

Assay [3] addresses T3, GST-Dm-Relish (UniProt Q94527).
T3 sequence: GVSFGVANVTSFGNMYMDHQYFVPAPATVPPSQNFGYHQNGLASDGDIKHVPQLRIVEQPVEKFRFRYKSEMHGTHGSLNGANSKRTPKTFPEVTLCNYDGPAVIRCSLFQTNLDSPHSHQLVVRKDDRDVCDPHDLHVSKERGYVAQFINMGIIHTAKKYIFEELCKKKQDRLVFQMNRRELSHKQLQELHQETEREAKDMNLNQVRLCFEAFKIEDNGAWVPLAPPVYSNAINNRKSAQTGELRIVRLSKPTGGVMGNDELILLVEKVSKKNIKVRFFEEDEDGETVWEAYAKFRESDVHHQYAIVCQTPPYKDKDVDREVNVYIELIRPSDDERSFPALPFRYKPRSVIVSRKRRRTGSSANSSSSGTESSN

Assay [4] has as its target T4, GST-Aq-NF-kB (UniProt A9Y5G7).
T4 sequence: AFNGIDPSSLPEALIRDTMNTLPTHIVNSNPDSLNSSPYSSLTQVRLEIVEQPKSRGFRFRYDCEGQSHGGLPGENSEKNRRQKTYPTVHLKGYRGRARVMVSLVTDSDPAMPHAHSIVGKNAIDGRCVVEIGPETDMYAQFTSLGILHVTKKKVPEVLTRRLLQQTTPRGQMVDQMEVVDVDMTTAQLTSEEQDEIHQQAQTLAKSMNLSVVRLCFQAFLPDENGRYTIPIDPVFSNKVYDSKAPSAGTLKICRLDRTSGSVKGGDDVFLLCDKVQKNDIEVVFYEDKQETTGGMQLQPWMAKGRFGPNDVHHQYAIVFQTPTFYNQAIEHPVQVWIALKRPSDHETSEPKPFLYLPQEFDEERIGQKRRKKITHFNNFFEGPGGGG

With “CCGATTAACATCAGGTCACCCCATGATGTTAATCGGGTCTTGATTCGCTTGACGCTGCTG”, the binding signal in assay [1] came out at 0.838 z-score; in assay [2] it was 0.399 z-score; in assay [3] it was 0.832 z-score; in assay [4] it was 0.454 z-score.
Regarding “CCGATTAACATCAGGGTGTAGTTTGATGTTAATCGGGTCTTGATTCGCTTGACGCTGCTG”, the binding signal in assay [1] was found to be 0.0653 z-score; in assay [2], 0.134 z-score; in assay [3] it was 1.07 z-score; in assay [4], 0.692 z-score.
In the same order, the values of “CCGATTAACATCATGGGGTGTGCTGATGTTAATCGGGTCTTGATTCGCTTGACGCTGCTG” are 1.12 z-score, 0.544 z-score, 0.773 z-score and 0.859 z-score.
As for “CCGATTAACATCAACGTGATTTGTGATGTTAATCGGGTCTTGATTCGCTTGACGCTGCTG”, the binding signal is -0.726 z-score in assay [1], -0.422 z-score in assay [2], 0.597 z-score in assay [3] and -0.391 z-score in assay [4].
Take “CCGATTAACATCAGGATTCCCCCTGATGTTAATCGGGTCTTGATTCGCTTGACGCTGCTG”: the binding signal in assay [1] was 11.3 z-score; in assay [2], 10.5 z-score; in assay [3] it was 10.2 z-score; in assay [4], 8.67 z-score.
In the same order, the values of “CCGATTAACATCAGGGAAGTCCCTGATGTTAATCGGGTCTTGATTCGCTTGACGCTGCTG” are 9.31 z-score, 11.7 z-score, 10.4 z-score and 10.2 z-score.
Taken in the same sequence, the figures for “CCGATTAACATCAGGGCAAAAAATGATGTTAATCGGGTCTTGATTCGCTTGACGCTGCTG” were 0.124 z-score, 0.887 z-score, 0.461 z-score and 0.273 z-score.
In the same order, the values of “CCGATTAACATCAATTCCCAACCTGATGTTAATCGGGTCTTGATTCGCTTGACGCTGCTG” are 0.86 z-score, 2.15 z-score, 0.662 z-score and 0.906 z-score.
In the case of “CCGATTAACATCAAAAAGTCCCCTGATGTTAATCGGGTCTTGATTCGCTTGACGCTGCTG”, the binding signal in assay [1] turned out to be 9.45 z-score; in assay [2], 10.8 z-score; in assay [3], 10 z-score; in assay [4], 8.93 z-score.
On to “CCGATTAACATCAAGGTTTTCCCTGATGTTAATCGGGTCTTGATTCGCTTGACGCTGCTG”, for which the binding signal turned out to be 4.36 z-score in assay [1], 5.34 z-score in assay [2], 5.1 z-score in assay [3] and 5.65 z-score in assay [4].
For “CCGATTAACATCAGGGAAACCCCTGATGTTAATCGGGTCTTGATTCGCTTGACGCTGCTG”, the binding signal in assay [1] came out at 10.6 z-score; in assay [2] it was 11.4 z-score; in assay [3] it was 9.95 z-score; in assay [4], 10 z-score.
In the same order, the values of “CCGATTAACATCAAAAACCCCCATGATGTTAATCGGGTCTTGATTCGCTTGACGCTGCTG” are 9.51 z-score, 8.21 z-score, 9.82 z-score and 7.68 z-score.
In the same order, the values of “CCGATTAACATCACACCCGCAACTGATGTTAATCGGGTCTTGATTCGCTTGACGCTGCTG” are 0.21 z-score, -0.118 z-score, 0.649 z-score and 0.474 z-score.
Taken in the same sequence, the figures for “CCGATTAACATCACAATAACGGGTGATGTTAATCGGGTCTTGATTCGCTTGACGCTGCTG” were -0.151 z-score, 0.441 z-score, 1.63 z-score and 0.391 z-score.
